This is one part of the list. Single values of this set are uncertain.
Key:
Test in all cases: mutation enrichment score (mutant vs wild-type peptide binding to bait); baits are purified protein domains named by gene / domain / UniProt id / residues; peptides come from disordered regions of human proteins; higher = mutation enhances binding relative to wild type
[1] = target: T1, AHNAK2_PDZ__Q8IVF2_108_193; details: wild-type window: …
T1 chain: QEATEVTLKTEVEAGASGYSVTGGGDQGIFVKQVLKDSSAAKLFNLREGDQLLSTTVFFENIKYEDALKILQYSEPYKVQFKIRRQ

[2] = target: ABL1_SH3__P00519_60_121; details: wild-type window: …
Sequence of ABL1_SH3__P00519_60_121 (chain, as listed by the source): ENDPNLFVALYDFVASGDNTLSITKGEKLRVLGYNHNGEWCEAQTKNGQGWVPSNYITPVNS

[3] = target: DMD_WW-EF__P11532_3055_3088; details: number of wild-type / mutant comparisons summed (bounds the score): 6; paper call: no_effect; wild-type window: …
[4] = target: EPS8_SH3_1_Q12929_534_598 (clone: EPS8L1_SH3_1_Q12929_534_598); details: paper call: no_effect, wild-type window: …
[5] = target: NEDD4_WW_2_P46934_765_803; details: number of wild-type / mutant comparisons summed (bounds the score): 12; paper call: enhanced; wild-type window: …
Sequence of NEDD4_WW_2_P46934_765_803 (chain, as listed by the source): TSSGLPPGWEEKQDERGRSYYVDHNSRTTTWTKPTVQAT

[6] = target: WWTR1_WW__Q9GZV5_122_160; details: number of wild-type / mutant comparisons summed (bounds the score): 12; paper call: enhanced; wild-type window: …
Sequence of WWTR1_WW__Q9GZV5_122_160 (chain, as listed by the source): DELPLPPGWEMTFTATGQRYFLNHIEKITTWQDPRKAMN

[7] = target: Intersectin-1_SH3_2_Q15811_913_971; details: paper call: no_effect, wild-type window: …
[8] = target: NCK1_SH3_1_P16333_5_60; details: wild-type window: …
[9] = target: Src_SH3__P12931_87_144; details: paper call: no_effect, wild-type window: …
[10] = target: ALYREF_RRM__Q86V81_78_183; details: number of wild-type / mutant comparisons summed (bounds the score): 6; paper call: no_effect; wild-type window: …
[11] = target: T2, G3BP2_NTF2_1_Q9UN86_1_139; details: number of wild-type / mutant comparisons summed (bounds the score): 6; paper call: no_effect; wild-type window: …
T2 chain: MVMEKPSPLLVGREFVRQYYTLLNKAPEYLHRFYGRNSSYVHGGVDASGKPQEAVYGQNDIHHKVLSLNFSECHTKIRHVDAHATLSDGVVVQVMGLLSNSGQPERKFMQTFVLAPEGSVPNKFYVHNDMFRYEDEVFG

[12] = target: USP7_MATH-TRAF__Q93009_53_206; details: number of wild-type / mutant comparisons summed (bounds the score): 5; paper call: no_effect; wild-type window: …
Sequence of USP7_MATH-TRAF__Q93009_53_206 (chain, as listed by the source): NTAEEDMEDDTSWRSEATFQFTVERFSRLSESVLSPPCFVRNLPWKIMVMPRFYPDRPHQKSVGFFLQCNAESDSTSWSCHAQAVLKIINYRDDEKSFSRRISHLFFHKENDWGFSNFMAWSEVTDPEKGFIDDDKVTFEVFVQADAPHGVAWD

[13] = number of wild-type / mutant comparisons summed (bounds the score): 6, paper call: no_effect
[14] = number of wild-type / mutant comparisons summed (bounds the score): 6
[15] = number of wild-type / mutant comparisons summed (bounds the score): 12
[16] = number of wild-type / mutant comparisons summed (bounds the score): 12, paper call: no_effect
[17] = number of wild-type / mutant comparisons summed (bounds the score): 12, paper call: diminished
[18] = number of wild-type / mutant comparisons summed (bounds the score): 12, paper call: enhanced

B1: P1344S P1344S (peptide)
chain: RREEARNPKRKPRLMEEDELSSWIIKDDAEVERLTCEEEEE
mutation enrichment score [1, 13]: 2

B2: T215M T215M (peptide)
chain: STSSSLAYPPPPSYPSPKPAMDPGLFPMIPDYPGFFPSQCQ
mutation enrichment score [2, 13]: 4.3 | mutation enrichment score [3]: 1.7 | mutation enrichment score [4, 14]: 4.5 | mutation enrichment score [5]: 7.3 | mutation enrichment score [6]: 7.9

B3: P129L P129L (peptide)
chain: KKAQIRANGFKLETGPPMGVLPPPPPAPDYVLPPSLHGPEP
mutation enrichment score ([2]; number of wild-type / mutant comparisons summed (bounds the score): 18, paper call: no_effect): -7.1 | mutation enrichment score [4, 14]: 2.6 | mutation enrichment score [7, 15]: -5 | mutation enrichment score [8, 16]: 2.4 | mutation enrichment score [9, 15]: 2.8

B4: G123A G123A (peptide)
chain: RALKQQKKAQIRANGFKLETAPPMGVPPPPPPAPDYVLPPS
mutation enrichment score [2, 17]: -10 | mutation enrichment score [7, 14]: -4

B5: G123E G123E (peptide)
chain: RALKQQKKAQIRANGFKLETEPPMGVPPPPPPAPDYVLPPS
mutation enrichment score [2, 16]: -0.87 | mutation enrichment score [7, 14]: 2.8 | mutation enrichment score [8, 13]: 0 | mutation enrichment score [9, 14]: 0

B6: D20G D20G (peptide)
chain: MLYLEDYLEMIEQLPMDLRDGFTEMREMDLQVQNAMDQLE
mutation enrichment score [10]: -4

B7: Q41H Q41H (peptide)
chain: PAPPPQPPESPPPPPLPPQQHQPAQPGPAASPAGPPAPRGP
mutation enrichment score [2, 16]: 3 | mutation enrichment score [9, 14]: -2.7

B8: R83W R83W (peptide)
chain: VNENFAIDLIAEQPVSEVETWVIACDGGGGALGHPKVYINL
mutation enrichment score [1, 18]: 11

B9: A61V A61V (peptide)
chain: LAPSSCMLAAFKPEAYAGPEVAAPGLPELRAELGRAPSPAK
mutation enrichment score [2, 18]: 7

B10: P59L P59L (peptide)
chain: RAVSADPLPPPPLPLQPPFGLDFYSSDTEEPAIAPDLKPVR
mutation enrichment score [2, 16]: 2.9 | mutation enrichment score [11]: 3 | mutation enrichment score [8, 13]: 3.8 | mutation enrichment score [9, 14]: 3.9

B11: M407V M407V (peptide)
chain: SPPEEPPDFCCPKCQYQAPDVDTLQIHVMECIE
mutation enrichment score [2, 13]: 1.4

B12: R956W R956W (peptide)
chain: YSNLANCSPNRQKPVVDHSVWINSVGSTASSSQPLLVHDDV
mutation enrichment score [1, 13]: 2 | mutation enrichment score [12]: 2.6

B13: R490W R490W (peptide)
chain: GWPGAVAHACNPSTLGGQGGWITRSGVRDQPDQHGLLWNLS
mutation enrichment score ([1]; number of wild-type / mutant comparisons summed (bounds the score): 18, paper call: enhanced): 11

B14: R622W R622W (peptide)
chain: KDRTKGPAEAELPEDPSMMGWLGKVEKQVLSMEKKLDFLVN
mutation enrichment score [10]: -3

B15: K1169E K1169E (peptide)
chain: VETLQTLQKKEIEDLYSRLGEQPPPGIVAPAAMLSSRQRRL
mutation enrichment score [10]: 4

B16: K174N K174N (peptide)
chain: MMQALLGARAKESLDLRAHLNQVKKEDTEKENREVGDWRKN
mutation enrichment score [10]: 3

B17: P131L P131L (peptide)
chain: AQIRANGFKLETGPPMGVPPLPPPAPDYVLPPSLHGPEPKG
mutation enrichment score ([2]; number of wild-type / mutant comparisons summed (bounds the score): 18, paper call: diminished): -9.9 | mutation enrichment score [4, 15]: 1.3 | mutation enrichment score [7, 15]: -2.8 | mutation enrichment score [8, 17]: -11 | mutation enrichment score [9, 15]: -4

B18: P34S P34S (peptide)
chain: SRPAAPSAHPPAHPPPSAAASAPAPSGQPGLMAQMATTAAG
mutation enrichment score [2, 17]: -7.6

B19: D715N D715N (peptide)
chain: SDDVSEVDARHIIENAKQDVNDEYGVSQALARGLQSYYAVA
mutation enrichment score [10]: -4.7
